# Whole data set: some 33,000 sequences, median “E-score (-0.5 to 0.5)” near -0.036, cut for the highest 2% near 0.37. The list shows a part of the results.
# Biological target: T1, Yer064c (UniProt P40041)
# T1 sequence: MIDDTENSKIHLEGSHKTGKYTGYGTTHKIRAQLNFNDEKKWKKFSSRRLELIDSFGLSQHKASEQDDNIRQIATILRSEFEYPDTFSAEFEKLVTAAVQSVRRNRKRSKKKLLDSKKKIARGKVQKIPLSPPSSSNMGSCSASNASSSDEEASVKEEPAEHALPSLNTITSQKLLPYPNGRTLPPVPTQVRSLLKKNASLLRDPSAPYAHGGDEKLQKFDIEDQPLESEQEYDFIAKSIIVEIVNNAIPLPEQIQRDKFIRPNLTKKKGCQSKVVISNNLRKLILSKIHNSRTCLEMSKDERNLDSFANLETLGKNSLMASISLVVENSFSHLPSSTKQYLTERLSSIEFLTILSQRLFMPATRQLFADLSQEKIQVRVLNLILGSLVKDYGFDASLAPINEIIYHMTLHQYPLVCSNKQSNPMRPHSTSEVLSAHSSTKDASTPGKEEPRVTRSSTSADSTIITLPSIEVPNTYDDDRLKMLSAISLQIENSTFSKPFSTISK
# Test: PBM E-score (8-mer binding enrichment) (E-score (-0.5 to 0.5)); higher = stronger / more preferred TF binding; most listed sequences are background and not binding sites
# Details: protein concentration: 200 nM; construct: GST-full length
# Procedure: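 Universal 'all 10-mer' protein binding microarrays (Agilent AMADID 015681) probed with GST-tagged S. cerevisiae TFs (full-length or DBD) made by in vitro transcription/translation (PURExpress), about 100-200 nM. Bound TF was detected with fluorescent anti-GST. Each ungapped 8-mer (which stands for itself and its reverse complement) is scored by the PBM enrichment score (E-score), a modified Wilcoxon-Mann-Whitney statistic from -0.5 to +0.5, computed with the Universal PBM Analysis Suite. Scale: above 0.35 generally sequence-specific binding.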
row,Sequence,PBM E-score
1,CGGATCAC,0.018
2,GCCTTACA,-0.192
3,CCACCGTC,-0.226
4,TATGCTAA,-0.0046
5,AAGTTCTC,0.062
6,AGTAAGCG,-0.0215
7,TATACGGA,-0.00922
8,CCCTTTAA,0.0555
9,AGACAGCC,-0.181
10,CTGAACGA,0.0953
11,CACGCCTG,-0.128
12,AAGTACCG,-0.182
13,CGCATTGC,0.0144
14,ATGCCGTA,-0.0237
15,ATCGAAGA,0.0458
16,CTCCTCTC,-0.0659
17,GCCCCCAC,-0.265
18,CGTAATAA,-0.0457
19,TTCCACAA,-0.0404
20,TACAGCCA,-0.152
21,CGTATCGC,-0.141
22,ACGAGGAC,0.165

row,Sequence,PBM E-score
1,CGCACTAA,-0.0949
2,AGGCGTGA,0.126
3,CAAGGCAG,-0.0576
4,CCTCAAGG,-0.14
5,TGGCGTAA,-0.21
6,AAAGAGGC,-0.0253
7,ATGCAGGC,-0.0553
8,CGATCCAC,-0.107
9,ATTCCACC,0.162
10,ACTGACAC,0.0326
11,AAGGGAAT,-0.144
12,GAGCCGAA,-0.161
13,AAAACAAC,-0.142
14,AAAATAAG,0.0252
15,ATTGCTTC,-0.0238
16,CACATAGG,-0.0221
17,CAGGTTGA,0.0225
18,CCTCCATC,-0.14
19,GCGCCTCA,-0.0686
20,CGAACGCA,0.0694
21,AACCGGCA,-0.154
22,ACATTTCT,-0.168

row,Sequence,PBM E-score
1,AGGGCAAC,-0.298
2,CACTCAAG,0.0873
3,ATCGCGGC,0.03
4,CCATGCAG,-0.237
5,CCCTTAAA,-0.16
6,CCCATATC,0.00433
7,ATTTCCAG,-0.073
8,GCTTCTAA,-0.238
9,CGCAACAA,-0.146
10,CAAGCGAA,-0.0875
11,ATTTGGGG,0.0406
12,TCGGCCCA,-0.036
13,GGCTCGGA,-0.182
14,ATCTTAAT,0.195
15,CTGGTTAC,-0.143
16,CAAAGTTA,0.0782
17,CCTTAGTC,0.41
18,GAGGCGAC,0.0143
19,AGCAACTA,0.107
20,AAGGCCGG,-0.0438
21,GGTAGGGA,-0.0117
22,TCGTTACA,0.064

row,Sequence,PBM E-score
1,GCTTAGAA,0.0272
2,AATCCATC,-0.0638
3,CTGTAGCA,-0.114
4,GAGTTCCA,-0.0582
5,ACTGGCTA,0.0549
6,CTCAGTAC,0.147
7,AGCGTGCC,-0.274
8,CGTTTCTC,-0.118
9,CGCCCCAA,-0.162
10,GCTGTCCC,-0.329
11,AGATAGGA,-0.126
12,ACATCGAA,0.00817
13,AGGAGTAG,-0.0375
14,AACTCCAA,0.0471
15,CATAAAAG,0.0811
16,CCACCTAC,0.0565
17,AGGACCAA,-0.219
18,CAACAAGA,0.112
19,CCCGCTAC,-0.194
20,AGAAACAC,-0.0696
